“And” between values parts separate entries of the source, which are not always exact repeats. Equal entries are not always repeated. The inconclusive results got no clear call from the source; some entries with a clear call stand among them for comparison. For part of these data: Where the call is inconclusive, the potency comes from a doubtful curve fit. The source made the active and inactive calls. Calls follow the shape of the dose curve; as a rule, active = well fitted curve in the direction sought with a large enough effect; inconclusive = small, poorly fitted or top-dose-only effect, or another doubt; inactive = no such curve, though single readings can be large; an effect the other way counts as inactive or inconclusive.
What was measured:
[1] = qHTS assay for measurement of the activity of small molecule inhibitors on Zika virus induced Caspase-3 activity in human iPSC derived neural progenitor cells (hNPCs) (AID 1224857); also: nearly all actives have a fitted effect of over 65% in size
Summary of the method: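 Quantitative HTS format: human iPSC neural progenitors, 1 h compound pretreatment, ZIKV 2 FFU/cell for 6 h at 37 C. Percent inhibition derived from luminescent caspase-3/7 signal between uninfected and infected controls.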

[2] = qHTS Screen of the MIPE 4.0 Collection Against Ewings Sarcoma (RDES) (AID 1259252); also: nearly all actives have a fitted effect of over 35% in size
Summary of the method: (§1)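 Compound titrations go onto adherent log-phase cells 4 h after seeding, incubate 48 h at 37C, then CellTiter-Glo luminescence reports viability relative to DMSO and cell-free controls.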

[3] = qHTS Screen of the MIPE 4.0 Collection Against Ewings Sarcoma (TC71) (AID 1259253); also: nearly all actives have a fitted effect of over 40% in size
Summary of the method: as §1

[4] = qHTS Screen of the MIPE 4.0 Collection Against Ewings Sarcoma (EW8) (AID 1259255); also: nearly all actives have a fitted effect of over 35% in size
Summary of the method: as §1

[5] = qHTS assay for cell viability of HEK293 cells (AID 743288); conditions: ATP luminescence (CellTiter-Glo), 18 h; max response: stronger effect = lower value; also: nearly all actives have a fitted effect of over 50% in size
Summary of the method: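 ATP luminescence (CellTiter-Glo) reports metabolically competent cell number after parental HEK293 cells, 2,000/well, were treated with DMSO-dissolved compounds for 18 h at 37 C; reagent incubation 30 min, room temperature.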

[6] = qHTS assay for cell viability of the p53RE-bla HCT-116 cell line (AID 743292); also: nearly all actives have a fitted effect of over 55% in size
Summary of the method: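 Luminescent ATP quantitation (CellTiter-Glo) served as the viability read-out; reagent was added after 16 h compound exposure at 37 C and read after 30 min at room temperature. Cells: p53RE-bla HCT-116, 4,000 per well.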

[7] = qHTS Assay for Identifying Gametocytocidal Compounds (AID 743244); conditions: P. falciparum 3D7 stage III-V gametocytes, alamarBlue, 72 h; max response: stronger effect = lower value
Summary of the method: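 A resazurin-based viability read-out was applied to mature P. falciparum gametocytes: 72 h compound treatment, then 24 h dye incubation, with falling fluorescence signalling gametocytocidal effect.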
Potency is read from the fitted curve at half-maximal effect; tags tell the direction and shape of the fitted curve.

Row | SMILES | Potency [1] | Potency [2] | Potency [3] | Potency [4] | Potency [5] | Potency [6] | Potency [7]
1 | CS(=O)(=O)N(Cc1ccco1)CC(O)Cn1c2ccccc2c2ccccc21 (stereo unspecified) | inconclusive: 37.2 µM [inhibitor, partial curve, poor fit] | inconclusive: 18.7 µM [inhibitor, single point] | inconclusive: 26.4 µM [inhibitor, single point] | inconclusive: 29.6 µM [inhibitor, single point] |  |  | 
2 | CC(C)CNc1ccnc(NCc2csc(-c3ccccc3)n2)n1 | inactive | inconclusive: 16.6 µM [inhibitor, partial curve] | active: 9.35 µM |  |  |  | 
3 | CC1=C(C(=O)O)N2C(=O)[C@@H](NC(=O)[C@H](N)C3=CCC=CC3)[C@H]2SC1 | inconclusive: 20 µM [inhibitor, partial curve, poor fit] | inactive | inactive | inactive |  |  | 
4 | Cc1cc(O)c2c(c1)C(=O)c1cc(O)cc(O)c1C2=O | active: 9.35 µM and active: 2.51 µM | inconclusive: 29.6 µM [inhibitor, single point] |  | inactive | active: 44.7 µM and inconclusive: 44.7 µM [cytotoxic, partial curve, poor fit] | inconclusive: 44.7 µM [cytotoxic, partial curve, poor fit] | 
5 | C=C(c1ccc(C(=O)O)cc1)c1cc2c(cc1C)C(C)(C)CCC2(C)C | inconclusive: 2.96 µM [inhibitor, single point] | inconclusive: 37.2 µM [inhibitor, single point] |  | inconclusive: 37.2 µM [inhibitor, single point] |  |  | 
6 | CC(=Cc1ccccc1)C=C1SC(=S)N(CC(=O)O)C1=O | inconclusive: 13.2 µM [inhibitor, partial curve, poor fit] | inactive | inactive | inactive |  |  | 
7 | O=C1NC(=O)C(c2ccccc2[N+](=O)[O-])=C1Nc1ccc(O)c(Cl)c1 | active: 20.9 µM and inconclusive: 12.6 µM [inhibitor, partial curve, poor fit] | active: 20.9 µM | inconclusive: 37.2 µM [inhibitor, single point] | inconclusive: 37.2 µM [inhibitor, single point] |  |  | inconclusive: 6.31 µM [inhibitor, single point]
8 | O=C(CCc1ccc(O)cc1)c1c(O)cc(O)cc1O[C@@H]1O[C@H](CO)[C@H](O)[C@H](O)[C@H]1O | inconclusive: 0.418 µM [inhibitor, single point] |  | inactive |  |  |  | 
9 | COc1ccnc(CS(=O)c2nc3ccc(OC(F)F)cc3[nH]2)c1OC (stereo unspecified) | inconclusive: 31.6 µM [inhibitor, partial curve, poor fit] | inconclusive: 33.2 µM [inhibitor, single point] |  | inactive |  |  | 
10 | CNC1CCCN(c2c(F)cc3c(=O)c(C(=O)O)cn(C4CC4)c3c2OC)C1 (stereo unspecified) | inactive | active: 14.8 µM | active: 18.7 µM | inconclusive: 20.9 µM [inhibitor, partial curve] |  |  | 
11 | O=C(Nc1ccccc1)Nc1ccc(-c2ccc(C(=O)[C@H]3CCC[C@H]3C(=O)O)cc2)cc1 | inactive | active: 14.8 µM | inconclusive: 16.6 µM [inhibitor, partial curve] | inconclusive: 23.5 µM [inhibitor, partial curve, poor fit] |  |  | 
12 | CN1C(=O)C(Cc2c[nH]c3ccccc23)NC1=S (stereo unspecified) | inactive |  | inconclusive: 0.59 µM [inhibitor, partial curve, poor fit] |  |  |  | 
13 | O=C(CCCN1CCC(O)(c2ccc(Cl)cc2)CC1)c1ccc(F)cc1 | inactive | inconclusive: 29.6 µM [inhibitor, single point] |  | inconclusive: 23.5 µM [inhibitor, single point] |  |  | inconclusive: 22.4 µM [inhibitor, single point] and inconclusive: 3.16 µM [inhibitor, single point]
14 | N#CC(=C(N)Sc1ccccc1N)C(C#N)=C(N)Sc1ccccc1N | inconclusive: 18.7 µM [inhibitor, partial curve] | inconclusive: 20.9 µM [inhibitor, single point] | inconclusive: 33.2 µM [inhibitor, single point] | inconclusive: 29.6 µM [inhibitor, single point] |  |  | 

— PubChem BioAssay (NCATS)
